Data taken from PubChem BioAssay (NCATS).
The inconclusive results got no clear call from the source; some entries with a clear call stand among them for comparison. No potency is given beside an inconclusive call; the fits are too rough. Calls of active or inactive are those of the source. Calls come from the whole dose curve; as a rule, active = well fitted curve in the direction sought with a large enough effect; inconclusive = small, poorly fitted or top-dose-only effect, or another doubt; inactive = no such curve, though single readings can be large; an effect the other way counts as inactive or inconclusive.

Key:
[1] = qHTS for Inhibitors of Plasmodium falciparum (DD2) proliferation (AID 504314);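 for activity, negative = inhibition: parasite DNA measured by SYBR Green fluorescence after red cell lysis; plate controls were DMSO vehicle for no effect and artemisinin wells for full effect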; settings: P. falciparum Dd2 in erythrocytes, SYBR Green growth, 72 h; activity, negative = inhibition: at 6.11 µM (top of the series)
Procedure, shortened: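 SYBR Green DNA-fluorescence growth assay: infected RBCs at 0.3% parasitemia, 2.5% hematocrit, 72 h compound exposure, 37C, 5% CO2; overnight lysis with dye at RT; normalized to 0.29 uM artemisinin and vehicle.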

[2] = qHTS for Inhibitors of Plasmodium falciparum (GB4) proliferation (AID 504315); note: nearly all actives have a fitted effect of over 50% in size;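 for activity change, negative = inhibition: 0% = DMSO vehicle and -100% = 0.29 µM artemisinin control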; settings: P. falciparum GB4 in erythrocytes, SYBR Green DNA, 72 h; activity change, negative = inhibition: at 6.7 µM (top of the series)
Procedure, shortened: (§1)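 Parasite growth measured as SYBR Green DNA fluorescence (ex 485, em 535 nm) after overnight lysis following 72 h culture at 37 °C, 0.3% parasitemia, 2.5% hematocrit. Values normalized against DMSO and 0.29 uM artemisinin controls, with plate-stack correction.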

[3] = qHTS for Inhibitors of Plasmodium falciparum (7G8) proliferation (AID 504316); note: nearly all actives have a fitted effect of over 65% in size;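 for activity change, negative = inhibition: 0% = DMSO vehicle and -100% = 0.29 µM artemisinin full kill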; settings: P. falciparum 7G8 in erythrocytes, SYBR Green DNA, 72 h; activity change, negative = inhibition: at 6.7 µM (top of the series)
Procedure, shortened: as §1
Potency is the fitted concentration of half-maximal effect; tags give direction and shape of the fitted curve.

SMILES | Potency [1] | Potency [2] | activity, negative = inhibition [1] | Potency [3]
C=CC[C@@](C(C)=O)(C(=O)OC)[C@@H](NC(=O)OC(C)(C)C)c1ccccc1 | inactive | inactive | – | –
C#CCN1C(=O)[C@]2(O[C@H](COc3ccccc3)CC3=CCCC32)c2c(Br)cccc21 (some centres undefined) | – | inconclusive [inhibitor, single point] | inconclusive: -13.7% [inhibitor] | inconclusive [inhibitor, partial curve, poor fit]
COC(=O)C1=C(C(=O)OC)[C@@H]2N(Cc3ccccc3)c3ccccc3[C@@]23CCC(=O)N(CCc2ccccn2)C3=N1 | inconclusive [inhibitor, single point] | inconclusive [inhibitor, partial curve, poor fit] | – | active: 1.51 µM
C[C@@H]1CC[C@H]2C(=O)O[C@@H](Cc3ccccc3)CN2[C@@H]1c1ccc(Br)cc1 | inactive | inconclusive [inhibitor] | – | –
COC(=O)C1=C(C(=O)OC)[C@@H]2N(C)c3ccc(OC)cc3[C@@]23C[C@@H](C(=O)OC)N(S(=O)(=O)c2c(C)noc2C)C3=N1 | inconclusive [activator, single point] | inactive | – | inconclusive [inhibitor, partial curve, poor fit]
CCN(CC)CCCN1C=C2C(=O)C(C)(OC(=O)C3CCCC3)C(=O)C=C2C=C1c1ccsc1 (centres undefined) | inconclusive [inhibitor, single point] | inconclusive [activator, partial curve, poor fit] | – | inactive
O=C1CCCC2=C1[C@H]1O[C@](CCCCN3C(=O)c4ccccc4C3=O)(Cc3c1ccc1ccccc31)O2 | inconclusive [inhibitor, single point] | inconclusive [inhibitor, single point] | – | active: 1.69 µM
COc1ccc(-c2nc3c(c4c2C[C@H](c2ccccc2)OC4)CN(S(=O)(=O)c2ccc(Cl)c4nonc24)CC3)c(C)c1 | inactive | inconclusive [inhibitor, single point] | – | inconclusive [inhibitor, partial curve, poor fit]
CC1(OC(=O)c2cccs2)C(=O)C=C2C=C(c3ccsc3)OC=C2C1=O (centres undefined) | inactive | inactive | – | –
CCOC(=O)CN1C(=O)N[C@@H](CCc2ccccc2)C(C(=O)OC)=C1C | – | inactive | inactive: 2.09% [at 1.12 µM] | –
COC(=O)C1=C(C(=O)OC)[C@@H]2N(C)c3ccc(OC)cc3[C@@]23C[C@@H](C(=O)OC)N(C(=O)c2ccc(Br)cc2)C3=N1 | – | inactive | inactive: -0.201% [at 1.12 µM] | –
CCCCC1=CC2=C(c3ccco3)C(=O)C(C)(OC(=O)c3ccc(OC)cc3)C(=O)C2=CN1C1CC1 (centres undefined) | – | inactive | inactive: -1.88% [at 1.12 µM] | –
COC(=O)N1C(C)=Cc2ccccc2C1C/C(C)=C/C(C)=O (centres undefined) | – | inconclusive [activator, full curve, poor fit] | inactive: -4.1% [at 1.12 µM] | –
COC(=O)CCCC1=CC2=CC(=O)C(C)(OC(=O)c3cccs3)C(=O)C2=CN1c1cccc(C#N)c1 (centres undefined) | – | inactive | inactive: 1.14% [at 1.12 µM] | –
C=CCOC(=O)N[C@H](C[N+](=O)[O-])c1ccccc1 | inactive | inactive | – | –
COC(=O)CCCC1=CC2=CC(=O)C(C)(OC(=O)c3cccs3)C(=O)C2=CN1CCN1CCOCC1 (centres undefined) | inactive | inconclusive [activator, full curve, poor fit] | – | –
COc1ccc(C=CN(CCc2ccc(OC)c(OC)c2)C(=O)c2ccccn2)cc1 | inactive | inconclusive [activator, partial curve, poor fit] | – | inconclusive [inhibitor, single point]
C=CCN=C1NC(c2cccc(C(F)(F)F)c2)C(C(=O)OC)=C(C)N1CC (centres undefined) | inconclusive [inhibitor, partial curve, poor fit] | inconclusive [inhibitor, single point] | – | inconclusive [inhibitor, partial curve, poor fit]
